Experimental data from publication PMC12214610.
Not every entry of the source has a single result; some have several. The other results are left out here. An entry can have further records. Some protein pairs were linked at several places, one record each.

Tests used:
Conditions in all cases: virion
[1] = target: CHMP1B (UniProt Q7LBR1)
[2] = target: CHMP2B (UniProt Q9UQN3)
[3] = target: CHMP1A (UniProt Q9HD42)
[4] = target: CHMP3 (UniProt Q9Y3E7)
[5] = target: CCT2 (UniProt P78371)
[6] = target: CCT4 (UniProt P50991)
[7] = target: DCTN2 (UniProt Q13561)
[8] = target: AP2M1 (UniProt Q96CW1)
Sequence of UniProt Q96CW1 (Q96CW1 whole entry): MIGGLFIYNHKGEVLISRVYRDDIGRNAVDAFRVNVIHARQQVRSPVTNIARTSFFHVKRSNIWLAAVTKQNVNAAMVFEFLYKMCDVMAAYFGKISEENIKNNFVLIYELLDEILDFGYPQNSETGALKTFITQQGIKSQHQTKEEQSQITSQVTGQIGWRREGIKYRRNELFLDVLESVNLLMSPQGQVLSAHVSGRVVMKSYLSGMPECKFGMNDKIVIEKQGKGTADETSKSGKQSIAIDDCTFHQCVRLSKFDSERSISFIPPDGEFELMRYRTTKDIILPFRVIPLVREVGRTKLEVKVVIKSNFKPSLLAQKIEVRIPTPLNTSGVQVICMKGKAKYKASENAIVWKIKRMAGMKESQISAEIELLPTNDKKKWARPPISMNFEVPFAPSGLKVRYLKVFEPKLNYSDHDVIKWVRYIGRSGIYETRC

[9] = target: CCT7 (UniProt Q99832)
Sequence of UniProt Q99832 (Q99832 whole entry): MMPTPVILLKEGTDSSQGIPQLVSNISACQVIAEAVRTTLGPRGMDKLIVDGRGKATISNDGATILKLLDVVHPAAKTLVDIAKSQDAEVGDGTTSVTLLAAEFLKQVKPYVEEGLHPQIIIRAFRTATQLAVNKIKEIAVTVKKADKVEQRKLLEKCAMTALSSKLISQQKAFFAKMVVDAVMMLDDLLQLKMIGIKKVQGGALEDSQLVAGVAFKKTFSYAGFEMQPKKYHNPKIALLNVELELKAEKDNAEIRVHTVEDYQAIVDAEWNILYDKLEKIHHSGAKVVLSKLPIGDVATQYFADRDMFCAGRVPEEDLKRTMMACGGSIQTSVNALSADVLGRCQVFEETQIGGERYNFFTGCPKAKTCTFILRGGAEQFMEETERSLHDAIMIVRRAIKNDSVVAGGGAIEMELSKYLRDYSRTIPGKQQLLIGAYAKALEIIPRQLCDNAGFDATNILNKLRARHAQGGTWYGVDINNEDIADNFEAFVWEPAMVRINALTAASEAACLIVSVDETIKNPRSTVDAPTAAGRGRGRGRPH

Sequence of CCT8 (P50990 whole entry): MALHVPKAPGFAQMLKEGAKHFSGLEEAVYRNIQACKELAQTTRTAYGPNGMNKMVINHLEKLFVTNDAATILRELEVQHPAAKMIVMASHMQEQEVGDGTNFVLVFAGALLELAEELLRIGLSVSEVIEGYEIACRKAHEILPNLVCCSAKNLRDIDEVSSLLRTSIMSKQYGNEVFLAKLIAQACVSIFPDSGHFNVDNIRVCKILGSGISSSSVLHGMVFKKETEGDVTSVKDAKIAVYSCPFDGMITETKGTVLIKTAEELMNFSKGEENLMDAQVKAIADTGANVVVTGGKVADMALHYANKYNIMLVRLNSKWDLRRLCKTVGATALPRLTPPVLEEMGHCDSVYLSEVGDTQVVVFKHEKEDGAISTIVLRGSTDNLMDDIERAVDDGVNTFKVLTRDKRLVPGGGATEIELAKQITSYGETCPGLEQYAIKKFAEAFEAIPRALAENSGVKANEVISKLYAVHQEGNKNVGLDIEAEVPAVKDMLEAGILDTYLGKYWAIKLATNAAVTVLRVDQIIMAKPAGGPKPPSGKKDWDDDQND
Sequence of UniProt Q9UQN3 (Q9UQN3 whole entry): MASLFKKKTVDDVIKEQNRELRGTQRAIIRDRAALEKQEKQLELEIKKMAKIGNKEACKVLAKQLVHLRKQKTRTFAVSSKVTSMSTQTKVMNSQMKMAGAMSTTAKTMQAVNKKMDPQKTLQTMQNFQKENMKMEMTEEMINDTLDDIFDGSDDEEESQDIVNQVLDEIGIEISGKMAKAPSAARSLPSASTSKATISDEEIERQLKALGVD
Sequence of AP2B1 (P63010 whole entry): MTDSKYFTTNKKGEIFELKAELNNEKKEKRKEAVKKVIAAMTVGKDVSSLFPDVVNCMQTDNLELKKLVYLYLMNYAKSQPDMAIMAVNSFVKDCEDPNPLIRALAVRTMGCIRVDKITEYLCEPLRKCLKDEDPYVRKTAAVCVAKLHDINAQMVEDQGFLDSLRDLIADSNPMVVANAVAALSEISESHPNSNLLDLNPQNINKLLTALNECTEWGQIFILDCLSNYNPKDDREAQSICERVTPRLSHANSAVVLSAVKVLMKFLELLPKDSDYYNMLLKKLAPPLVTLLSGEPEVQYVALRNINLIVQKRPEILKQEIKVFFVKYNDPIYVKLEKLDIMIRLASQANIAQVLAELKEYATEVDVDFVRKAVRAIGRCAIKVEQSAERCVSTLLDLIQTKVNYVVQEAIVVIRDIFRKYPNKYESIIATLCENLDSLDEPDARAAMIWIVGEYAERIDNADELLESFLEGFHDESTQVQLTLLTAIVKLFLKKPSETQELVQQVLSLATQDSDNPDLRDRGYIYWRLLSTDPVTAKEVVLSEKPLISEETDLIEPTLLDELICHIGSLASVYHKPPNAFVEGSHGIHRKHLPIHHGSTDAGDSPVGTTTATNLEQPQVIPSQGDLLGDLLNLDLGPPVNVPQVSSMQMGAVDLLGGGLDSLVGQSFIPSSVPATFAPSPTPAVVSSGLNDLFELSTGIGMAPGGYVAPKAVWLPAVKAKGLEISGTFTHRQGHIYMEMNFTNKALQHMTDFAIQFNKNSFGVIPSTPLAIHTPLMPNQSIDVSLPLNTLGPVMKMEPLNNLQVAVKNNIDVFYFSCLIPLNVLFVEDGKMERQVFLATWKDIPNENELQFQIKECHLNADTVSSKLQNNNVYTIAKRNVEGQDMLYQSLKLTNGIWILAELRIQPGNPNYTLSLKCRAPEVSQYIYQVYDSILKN
Sequence of CCT4, P50991 (P50991 whole entry): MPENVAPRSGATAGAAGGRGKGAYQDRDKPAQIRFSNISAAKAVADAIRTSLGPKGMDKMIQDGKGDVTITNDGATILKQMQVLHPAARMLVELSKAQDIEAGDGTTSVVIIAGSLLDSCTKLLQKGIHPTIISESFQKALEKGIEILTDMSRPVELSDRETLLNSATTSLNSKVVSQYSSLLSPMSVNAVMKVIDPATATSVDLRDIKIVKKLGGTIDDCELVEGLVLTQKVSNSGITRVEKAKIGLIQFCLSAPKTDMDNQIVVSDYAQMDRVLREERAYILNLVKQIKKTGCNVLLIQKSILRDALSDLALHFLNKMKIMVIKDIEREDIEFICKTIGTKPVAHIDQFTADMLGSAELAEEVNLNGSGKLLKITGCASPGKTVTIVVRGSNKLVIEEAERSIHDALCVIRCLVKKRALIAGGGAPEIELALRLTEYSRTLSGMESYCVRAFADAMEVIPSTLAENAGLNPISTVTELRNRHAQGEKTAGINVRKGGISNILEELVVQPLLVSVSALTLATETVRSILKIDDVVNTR
Sequence of UniProt P78371 (P78371 whole entry): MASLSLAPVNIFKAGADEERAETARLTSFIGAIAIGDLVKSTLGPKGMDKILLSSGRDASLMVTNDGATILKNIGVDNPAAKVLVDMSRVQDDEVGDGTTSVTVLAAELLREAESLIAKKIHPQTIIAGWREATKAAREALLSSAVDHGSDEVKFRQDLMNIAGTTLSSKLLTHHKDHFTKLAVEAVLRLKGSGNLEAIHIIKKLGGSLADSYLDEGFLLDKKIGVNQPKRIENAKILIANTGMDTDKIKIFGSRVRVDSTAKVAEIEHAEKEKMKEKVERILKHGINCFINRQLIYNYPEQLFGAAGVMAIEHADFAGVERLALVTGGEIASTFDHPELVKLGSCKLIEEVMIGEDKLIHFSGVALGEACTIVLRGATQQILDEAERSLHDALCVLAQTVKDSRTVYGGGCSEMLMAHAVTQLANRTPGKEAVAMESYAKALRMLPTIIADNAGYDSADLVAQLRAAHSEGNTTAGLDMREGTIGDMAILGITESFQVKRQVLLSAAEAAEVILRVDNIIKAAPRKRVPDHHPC
Sequence of ACTR1A (P61163 whole entry): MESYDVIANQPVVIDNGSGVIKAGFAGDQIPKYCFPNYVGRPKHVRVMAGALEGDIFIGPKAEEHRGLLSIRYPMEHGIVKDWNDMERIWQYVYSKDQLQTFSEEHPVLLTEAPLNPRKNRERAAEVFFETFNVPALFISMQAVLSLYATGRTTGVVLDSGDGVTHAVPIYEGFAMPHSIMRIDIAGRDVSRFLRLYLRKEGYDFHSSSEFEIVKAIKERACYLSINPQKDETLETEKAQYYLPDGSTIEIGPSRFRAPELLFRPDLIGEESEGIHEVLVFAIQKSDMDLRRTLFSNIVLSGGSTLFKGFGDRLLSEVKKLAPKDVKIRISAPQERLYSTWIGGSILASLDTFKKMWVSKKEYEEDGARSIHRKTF
Sequence of CCT5 (P48643 whole entry): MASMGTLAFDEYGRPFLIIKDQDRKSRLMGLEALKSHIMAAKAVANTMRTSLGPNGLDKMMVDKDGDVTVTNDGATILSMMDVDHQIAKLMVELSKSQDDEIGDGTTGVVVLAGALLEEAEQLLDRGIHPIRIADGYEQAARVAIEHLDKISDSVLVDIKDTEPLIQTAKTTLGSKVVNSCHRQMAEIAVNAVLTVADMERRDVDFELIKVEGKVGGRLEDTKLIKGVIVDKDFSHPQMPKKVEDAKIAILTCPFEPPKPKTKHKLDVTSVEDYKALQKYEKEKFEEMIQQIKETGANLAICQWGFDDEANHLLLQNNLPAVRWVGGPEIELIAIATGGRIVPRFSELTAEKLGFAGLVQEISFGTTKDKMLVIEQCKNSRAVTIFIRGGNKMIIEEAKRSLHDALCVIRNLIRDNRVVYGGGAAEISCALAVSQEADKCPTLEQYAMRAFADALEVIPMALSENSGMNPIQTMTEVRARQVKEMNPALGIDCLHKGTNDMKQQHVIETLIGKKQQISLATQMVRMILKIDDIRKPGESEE
Sequence of UniProt Q9Y3E7 (Q9Y3E7 whole entry): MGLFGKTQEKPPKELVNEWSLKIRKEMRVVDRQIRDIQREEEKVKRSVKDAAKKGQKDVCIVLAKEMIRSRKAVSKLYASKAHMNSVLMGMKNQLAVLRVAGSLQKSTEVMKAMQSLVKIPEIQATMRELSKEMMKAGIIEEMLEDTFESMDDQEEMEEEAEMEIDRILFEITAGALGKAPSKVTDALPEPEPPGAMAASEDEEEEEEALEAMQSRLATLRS

How did the cross-linked residues [1] turn out when CHMP2A, O43633 was run?
Its cross-linked residues is “K89 - K16 and K124 - K87 and K124 - K90”.

And the cross-linked residues [2]?
Its cross-linked residues is “K52 - K180 and K52 - K195 and K89 - K63 and K94 - K37”.

Which results are given for CHMP1B, Q7LBR1?
cross-linked residues [3]: K30 - K40 and K42 - K27 and K42 - K56 and K59 - K40 and K90 - K98 and K97 - K107 and K110 - K94; cross-linked residues [2]: K16 - K63 and K16 - K81 and K27 - K63 and K42 - K55 and K42 - K59 and K42 - K180 and K87 - K130 and K90 - K130; cross-linked residues [4]: K16 - K65 and K90 - K132

How did the cross-linked residues [5] turn out when CCT5, P48643 was run?
Its cross-linked residues is “K176 - K135 and K392 - K82 and K496 - K135”.

What about the cross-linked residues [6] of the same substance?
The cross-linked residues was “K42 - K21 and K42 - K126 and K214 - K489”.

How did the cross-linked residues [7] turn out when ACTR1A, P61163 was run?
The cross-linked residues was “K230 - K65 and K361 - K65 and K361 - K119 and K361 - K125 and K361 - K132”.

For AP2B1, P63010, which cross-linked residues [8] is on record?
The cross-linked residues was “K282 - K219 and K282 - K224 and K282 - K281 and K322 - K281”.

CCT4, P50991 was tested. Which cross-linked residues [5] did it give?
The cross-linked residues was “K21 - K40 and K21 - K82 and K21 - K119 and K21 - K120 and K21 - K441 and K21 - K522 and K29 - K40 and K29 - K120 and K29 - K522 and K42 - K46 and K139 - K46 and K395 - K154 and K489 - K135 and K531 - K46”.

Which cross-linked residues [9] does the source give for CCT8, P50990 here?
The cross-linked residues was “K225 - K366 and K296 - K320 and K459 - K430”.
